From the supplement of paper PMC8291772
± gives the standard error. The list shows a part of the results.

Each sequence was assayed against terminal deoxynucleotidyl transferase (calf thymus) (UniProt P06526) (assay: TdT poly-dT extension signal (Cy3 hybridisation fluorescence, uncapped minus capped) (fluorescence a.u.); higher = more efficient initiation of TdT extension). Conditions: initiator chemistry: L-DNA (mirror-image), free 5'-OH (3'-tethered via HEG linker).
Description: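 All mono- to pentamer D-DNA or L-DNA initiators were made by forward (3'->5') photolithographic in situ synthesis on glass on a hexaethylene glycol linker, leaving a free 5'-OH. Each was made in uncapped and DMTr-dT-capped versions, about 11 replicates each. Arrays were extended with calf thymus TdT (0.2 U/uL), 100 uM dTTP and 0.25 mM CoCl2 for 120 min at 37 C, hybridised with an rA18-Cy3 probe and scanned at 532 nm. The value is the mean uncapped minus the mean capped signal. IDs read 5'->3'. L-DNA is mirror-image; D-DNA 5'-OH initiators were below LOD (no extension).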

Chain of UniProt P06526 (P06526 whole entry): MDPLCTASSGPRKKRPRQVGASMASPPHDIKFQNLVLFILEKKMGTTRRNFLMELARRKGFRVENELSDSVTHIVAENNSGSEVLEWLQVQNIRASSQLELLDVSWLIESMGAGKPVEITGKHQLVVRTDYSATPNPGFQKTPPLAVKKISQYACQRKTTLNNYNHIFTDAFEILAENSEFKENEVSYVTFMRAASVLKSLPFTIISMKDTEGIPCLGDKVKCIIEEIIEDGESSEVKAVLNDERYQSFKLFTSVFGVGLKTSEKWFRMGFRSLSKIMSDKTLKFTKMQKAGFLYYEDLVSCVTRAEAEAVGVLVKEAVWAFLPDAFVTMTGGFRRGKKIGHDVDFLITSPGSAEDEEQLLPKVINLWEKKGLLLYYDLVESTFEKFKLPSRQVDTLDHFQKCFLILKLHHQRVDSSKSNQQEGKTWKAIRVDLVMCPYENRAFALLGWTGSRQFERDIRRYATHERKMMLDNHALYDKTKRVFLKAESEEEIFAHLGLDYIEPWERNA

| Sequence | TdT poly-dT extension signal |
| --- | --- |
| ATACC | 171 ± 18 |
| TTGCC | 229 ± 20 |
| CAGT | 38.8 ± 5.3 |
| TGCCA | 130 ± 11 |
| TTAT | 340 ± 30 |
| TGTTC | 108 ± 11 |
| ATGGA | 155 ± 10 |
| GCATA | 67.9 ± 7 |
| AATG | 74.3 ± 5.6 |
| CGTTA | 41.1 ± 5.7 |
| GTGAA | 142 ± 17 |
| TACGA | 194 ± 14 |
| CACTT | 59.1 ± 7.1 |
| TAGCC | 105 ± 7.2 |
| GTCGC | 137 ± 12 |
| GAGG | 59.6 ± 4.4 |
| AACCG | 80.8 ± 9.2 |
| AAAA | 101 ± 5.7 |
| TCACA | 190 ± 19 |
| ATTCA | 139 ± 13 |
| GATCG | 77.2 ± 8 |
| CGAGG | 82.9 ± 7.5 |
| TTCG | 284 ± 31 |
| CTTGA | 148 ± 14 |

| Sequence | TdT poly-dT extension signal |
| --- | --- |
| GGCTT | 54.7 ± 4.6 |
| ATCCA | 153 ± 10 |
| CAAGC | 70.2 ± 6.8 |
| AAGT | 44.3 ± 6.8 |
| GCGTC | 60.1 ± 6.2 |
| AAATT | 109 ± 9.2 |
| TATGG | 167 ± 18 |
| GAGAC | 59.5 ± 6.4 |
| GCGT | 48.6 ± 8.4 |
| TAATA | 210 ± 15 |
| ATTAA | 201 ± 20 |
| CTTCT | 109 ± 9.2 |
| CTAGC | 134 ± 8.7 |
| CGATT | 52.3 ± 5.7 |
| TACA | 178 ± 8 |
| GGTTC | 46.3 ± 6.5 |
| TACCG | 150 ± 11 |
| GAATG | 89 ± 9.9 |
| CTTGG | 163 ± 10 |
| AGCAC | 50 ± 4.6 |
| GGGCT | 74.1 ± 12 |
| CGCCT | 48.4 ± 5.6 |
| GGGGA | 88.4 ± 13 |
| CACTC | 62.4 ± 8 |

| Sequence | TdT poly-dT extension signal |
| --- | --- |
| CCGTT | 57.2 ± 6.1 |
| CCCAC | 106 ± 10 |
| TATC | 171 ± 12 |
| ATCAA | 236 ± 13 |
| GCTTA | 68.9 ± 7 |
| CGCGA | 66.2 ± 6 |
| CGTG | 42.7 ± 6.1 |
| TGGT | 100 ± 8.5 |
| ACCCG | 76.1 ± 6.5 |
| CGCC | 63.3 ± 6.2 |
| CACA | 64.8 ± 7.9 |
| CGGAG | 58.9 ± 7.1 |
| CGCAT | 56.7 ± 7.8 |
| TGCTG | 140 ± 8.4 |
| CAATA | 91.3 ± 9.7 |
| GATCC | 70.6 ± 8.6 |
| TTAGT | 368 ± 28 |
| GGGTA | 47.1 ± 6.2 |
| ACTTC | 66.4 ± 5 |
| ATTA | 165 ± 11 |
| TTCAA | 388 ± 29 |
| GGTTG | 53.8 ± 8.5 |
| TTCCG | 388 ± 25 |
| TTGAT | 314 ± 27 |

| Sequence | TdT poly-dT extension signal |
| --- | --- |
| ATAGC | 182 ± 14 |
| AACG | 74.9 ± 8.3 |
| CTCAC | 130 ± 12 |
| GTAAA | 239 ± 15 |
| GGAAA | 76.7 ± 7.8 |
| AAACC | 73.6 ± 7.5 |
| TCTTC | 142 ± 12 |
| CCAAA | 122 ± 7.3 |
| AATCC | 60.8 ± 6.7 |
| AACGC | 83.5 ± 7 |
| ATACG | 188 ± 13 |
| TCGTG | 120 ± 7.7 |
| GTGAT | 121 ± 12 |
| TAACA | 181 ± 12 |
| TTTTC | 242 ± 27 |
| ATATA | 192 ± 12 |
| GGAAC | 95.4 ± 8.1 |
| CCCGC | 84.8 ± 7.3 |
| AGACA | 50.8 ± 8.3 |
| CATTT | 66.2 ± 6.7 |
| GTTTT | 125 ± 8.3 |
| TAGAC | 117 ± 15 |
| CGAGA | 71.9 ± 6.6 |
| CGGGG | 91.1 ± 10 |

| Sequence | TdT poly-dT extension signal |
| --- | --- |
| TCTCT | 347 ± 200 |
| GTATT | 158 ± 10 |
| TGGCT | 113 ± 11 |
| GGACG | 73.6 ± 7.5 |
| ATATC | 192 ± 14 |
| CCCCC | 100 ± 6.9 |
| TACAC | 145 ± 17 |
| CAAAC | 86.8 ± 10 |
| AGGC | 36.1 ± 5.6 |
| AACAC | 95.3 ± 8.9 |
| TCACG | 181 ± 12 |
| ATTCG | 127 ± 10 |
| CATCC | 52.2 ± 5.7 |
| TAAGC | 144 ± 10 |
| TGCCC | 133 ± 18 |
| GTACA | 152 ± 8.5 |
| AAGCC | 44.4 ± 4.9 |
| TCGTA | 115 ± 10 |
| CTAA | 170 ± 12 |
| CCGAA | 89.7 ± 6.6 |
| ATTG | 140 ± 12 |
| TGATC | 198 ± 14 |
| TAAG | 161 ± 15 |
| GAAAC | 97.6 ± 6.6 |

| Sequence | TdT poly-dT extension signal |
| --- | --- |
| CACAT | 63.2 ± 10 |
| AGGTT | 33.1 ± 7.5 |
| CAGAG | 71.3 ± 6.3 |
| ACAAT | 93.6 ± 7.7 |
| GGGA | 68.4 ± 14 |
| ATAAA | 276 ± 19 |
| CTGC | 102 ± 11 |
| AATTT | 76.9 ± 8.6 |
| AAATC | 71.7 ± 7.2 |
| TGACT | 166 ± 11 |
| GGTC | 61.6 ± 6.6 |
| CTCTA | 130 ± 12 |
| ACCC | 45.2 ± 10 |
| TGTAT | 145 ± 6.2 |
| ATCTG | 143 ± 16 |
| TACTA | 180 ± 15 |
| AGCT | 55.2 ± 6.6 |
| TGCTT | 131 ± 9.6 |
| TGATA | 170 ± 12 |
| TCTAC | 165 ± 11 |
| ATGAC | 136 ± 12 |
| GTTTG | 135 ± 8.7 |
| CAGGA | 50.6 ± 4.4 |
| GGCGT | 61.2 ± 7.4 |

| Sequence | TdT poly-dT extension signal |
| --- | --- |
| AGCTG | 46.2 ± 5 |
| GTTG | 115 ± 11 |
| CATA | 73.2 ± 8.1 |
| GATGG | 94.1 ± 6.2 |
| AAGG | 44.8 ± 6.2 |
| CCTGA | 96.8 ± 7.2 |
| CGCCA | 56.1 ± 4.7 |
| TAGGG | 126 ± 8 |
| CCCTC | 82.2 ± 7.4 |
| GAACT | 66.5 ± 9.6 |
| CGATC | 71.4 ± 6.2 |
| AGTA | 44.2 ± 4.4 |
| TCATA | 211 ± 17 |
| AGCGA | 54.6 ± 4.6 |
| TTTAC | 344 ± 22 |
| CCTA | 84.4 ± 13 |
| ACGAA | 76.9 ± 4.9 |
| ACGTC | 47.1 ± 4.9 |
| TTTG | 264 ± 15 |
| AGCAT | 61.6 ± 5.9 |
| GCCTC | 74.3 ± 12 |
| TAAGG | 172 ± 10 |
| CTGCA | 109 ± 8.5 |
| CCGCA | 75.1 ± 7.1 |

| Sequence | TdT poly-dT extension signal |
| --- | --- |
| CACGC | 57.6 ± 5.8 |
| TGGC | 106 ± 7.5 |
| CGACG | 73.6 ± 5.2 |
| AGGAC | 56.2 ± 5.2 |
| CGTTC | 51.2 ± 6.6 |
| CATC | 73.9 ± 8.5 |
| ATTC | 136 ± 9.9 |
| GAGT | 55.3 ± 6.4 |
| TCTGG | 169 ± 11 |
| TCCAC | 220 ± 17 |
| GGCGA | 68.7 ± 4.6 |
| GATA | 84.4 ± 9.1 |
| TGTT | 120 ± 4.8 |
| CTGA | 130 ± 12 |
| GGTCC | 37.8 ± 6.6 |
| ACTGA | 68.6 ± 8.3 |
| ATCCT | 126 ± 9 |
| TGCGT | 133 ± 9.2 |
| CTTAT | 106 ± 7.6 |
| ATCGG | 198 ± 12 |
| CAAG | 59.4 ± 8.9 |
| TGCT | 123 ± 9.8 |
| CCACT | 90 ± 7.8 |
| GTCTT | 128 ± 8 |

| Sequence | TdT poly-dT extension signal |
| --- | --- |
| AAAGG | 84.3 ± 8.4 |
| GCAAT | 88 ± 9.8 |
| TGTAC | 140 ± 10 |
| CCTCA | 78.7 ± 8.6 |
| GGGTT | 75.3 ± 6.3 |
| GCACG | 87 ± 5.5 |
| GGCAA | 78.8 ± 10 |
| GGCAG | 78.3 ± 10 |
| AACTC | 74.5 ± 9.7 |
| AACGA | 86 ± 7.7 |
| TCACC | 162 ± 5.5 |
| GTGCT | 95.1 ± 10 |
| TTGCA | 228 ± 14 |
| CGGTC | 31.7 ± 5.1 |
| CCGTA | 63.1 ± 6.5 |
| GATTC | 59.6 ± 8.6 |
| TAGGA | 123 ± 9.3 |
| GCAG | 59.8 ± 6.3 |
| TCAGT | 140 ± 11 |
| GGGTG | 69.1 ± 4.3 |
| AGGGA | 47.7 ± 5.1 |
| GACAG | 89.7 ± 6.3 |
| AGAC | 62.2 ± 6.1 |
